The text below walks through data of the supplement of paper PMC4604168 (melanoma cell lines).

The structures appear in SMILES notation. The list shows a part of the results. Repeats are few or missing, and single values can be far off.
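Also: cell number obtained by counting DAPI-stained nuclei in high-throughput microscope images with image analysis software, screen run in 1,536-well plates.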

The subject of the assay is WM1716. Kind of assay: cell count relative to DMSO control; melanoma cells; higher = more viable cells. To be noted: library dose: low library concentration; 72 h.
As for `Nc1ccn([C@@H]2O[C@H](CO)[C@@H](O)C2(F)F)c(=O)n1` [gemcitabine] + CN(C)S(=O)(=O)c1ccc2c(c1)/C(=C/c1cc3c([nH]1)CCCC3)C(=O)N2 [SU6656] (first compound 0.0004 µM, partner dose 0.4 µM), the cell count worked out at 134%.
Turning to `Nc1ncn([C@H]2C[C@H](O)[C@@H](CO)O2)c(=O)n1` [decitabine] + COc1cc(N2CCC(N3CCN(C)CC3)CC2)ccc1Nc1ncc(Cl)c(Nc2ccccc2S(=O)(=O)C(C)C)n1 [NVP-TAE684] (first compound 0.1 µM, partner dose 0.08 µM), the cell count was found to be 89.8%.
In the case of `CC(=O)O[C@@]12CO[C@@H]1C[C@H](O)[C@@]1(C)C(=O)[C@H](O)C3=C(C)[C@@H](OC(=O)[C@H](O)[C@@H](NC(=O)OC(C)(C)C)c4ccccc4)C[C@@](O)([C@@H](OC(=O)c4ccccc4)[C@H]21)C3(C)C` [Docetaxel] + CCCCCCCCCCCC1=C(O)C(=O)C=C(O)C1=O [Embelin] (first compound 0.0001 µM, partner dose 1.2 µM) it was 34.7%.
In the case of `CC(=O)c1c(C)c2cnc(Nc3ccc(N4CCNCC4)cn3)nc2n(C2CCCC2)c1=O` [palbociclib] + O=C(Nc1cccc(Cl)c1)Nc1ncc(CCNc2ncnc3ccsc23)s1 [SNS314] (first compound 0.04 µM, partner dose 0.0008 µM) it was 55.2%.
`CC(=O)O[C@@]12CO[C@@H]1C[C@H](O)[C@@]1(C)C(=O)[C@H](O)C3=C(C)[C@@H](OC(=O)[C@H](O)[C@@H](NC(=O)OC(C)(C)C)c4ccccc4)C[C@@](O)([C@@H](OC(=O)c4ccccc4)[C@H]21)C3(C)C` [Docetaxel] + N#Cc1c(O)c2c(-c3ccc(-c4ccccc4O)cc3)csc2[nH]c1=O [A769662] (first compound 0.0001 µM, partner dose 2 µM): the cell count turned out to be 41.9%.
In the case of `Nc1ccn([C@@H]2O[C@H](CO)[C@@H](O)C2(F)F)c(=O)n1` [gemcitabine] + CC(C)CCN1c2nc(Nc3cc(F)c(O)c(F)c3)ncc2N(C)C(=O)C1C [BID1870] (first compound 0.0004 µM, partner dose 0.2 µM) it was 98.9%; in that of `Nc1nc(F)nc2c1ncn2[C@@H]1O[C@H](CO)[C@@H](O)[C@@H]1O` [fludarabine] + N#Cc1c(O)c2c(-c3ccc(-c4ccccc4O)cc3)csc2[nH]c1=O [A769662] (first compound 0.2 µM, partner dose 2 µM), 100%; in that of `Nc1ccn([C@@H]2O[C@H](CO)[C@@H](O)C2(F)F)c(=O)n1` [gemcitabine] + Cc1cc([N+](=O)[O-])ccc1NS(=O)(=O)c1cc(Cl)ccc1Cl [FH535] (first compound 0.0004 µM, partner dose 1 µM), 80.2%.
The same measure for `Nc1ccn([C@@H]2O[C@H](CO)[C@@H](O)C2(F)F)c(=O)n1` [gemcitabine] + Cc1cc(N2CCOCC2)cc2[nH]c(-c3c(NC[C@@H](O)c4cccc(Cl)c4)cc[nH]c3=O)nc12 [BMS536924] (first compound 0.0004 µM, partner dose 0.2 µM): 103%.
In the case of `Nc1nc(F)nc2c1ncn2[C@@H]1O[C@H](CO)[C@@H](O)[C@@H]1O` [fludarabine] + CO[C@@H]1[C@H](N(C)C(=O)c2ccccc2)C[C@H]2O[C@]1(C)n1c3ccccc3c3c4c(c5c6ccccc6n2c5c31)C(=O)NC4 [Midostaurin] (first compound 0.2 µM, partner dose 0.08 µM) it was 73.3%.
With `Nc1ncn([C@H]2C[C@H](O)[C@@H](CO)O2)c(=O)n1` [decitabine] + O=C1NC(=O)/C(=C/c2ccc(-c3ccc(F)cc3O)o2)S1 [AS252424] (first compound 0.1 µM, partner dose 1 µM), the cell count worked out at 84.7%.
For the compound `Nc1ncn([C@H]2C[C@H](O)[C@@H](CO)O2)c(=O)n1` [decitabine] + CC(C)(C)c1cnc(CSc2cnc(NC(=O)C3CCNCC3)s2)o1 [SNS-032] (first compound 0.1 µM, partner dose 0.01 µM), the cell count came out at 78.4%.
In the case of `Nc1ccn([C@@H]2O[C@H](CO)[C@@H](O)C2(F)F)c(=O)n1` [gemcitabine] + COc1ccc2c(c1)CCC1C2CCC2(C)C(NCCCCCCN3C(=O)C=CC3=O)CCC12 [U73122] (first compound 0.0004 µM, partner dose 0.4 µM) it was 101%.
In the case of `Nc1ncn([C@H]2C[C@H](O)[C@@H](CO)O2)c(=O)n1` [decitabine] + COc1cc2c(Oc3ccc4[nH]c(C)cc4c3F)ncnc2cc1OCCCN1CCCC1 [cediranib] (first compound 0.1 µM, partner dose 0.4 µM) it was 87.8%; in that of `Nc1ncn([C@H]2C[C@H](O)[C@@H](CO)O2)c(=O)n1` [decitabine] + CN(C)S(=O)(=O)c1ccc2c(c1)/C(=C/c1cc3c([nH]1)CCCC3)C(=O)N2 [SU6656] (first compound 0.1 µM, partner dose 0.4 µM), 85.5%.
In the case of `CC(=O)O[C@@]12CO[C@@H]1C[C@H](O)[C@@]1(C)C(=O)[C@H](O)C3=C(C)[C@@H](OC(=O)[C@H](O)[C@@H](NC(=O)OC(C)(C)C)c4ccccc4)C[C@@](O)([C@@H](OC(=O)c4ccccc4)[C@H]21)C3(C)C` [Docetaxel] + COc1cc(N2CCC(N3CCN(C)CC3)CC2)ccc1Nc1ncc(Cl)c(Nc2ccccc2S(=O)(=O)C(C)C)n1 [NVP-TAE684] (first compound 0.0001 µM, partner dose 0.08 µM) it was 42.5%.
In turn, `Nc1nc(F)nc2c1ncn2[C@@H]1O[C@H](CO)[C@@H](O)[C@@H]1O` [fludarabine] + O=C(Nc1cccc(Cl)c1)Nc1ncc(CCNc2ncnc3ccsc23)s1 [SNS314] (first compound 0.2 µM, partner dose 0.0008 µM) had a cell count of 105%.
The same measure for `CC(=O)O[C@@]12CO[C@@H]1C[C@H](O)[C@@]1(C)C(=O)[C@H](O)C3=C(C)[C@@H](OC(=O)[C@H](O)[C@@H](NC(=O)OC(C)(C)C)c4ccccc4)C[C@@](O)([C@@H](OC(=O)c4ccccc4)[C@H]21)C3(C)C` [Docetaxel] + CC(C)CCN1c2nc(Nc3cc(F)c(O)c(F)c3)ncc2N(C)C(=O)C1C [BID1870] (first compound 0.0001 µM, partner dose 0.2 µM): 42.4%; for `Nc1ncn([C@H]2C[C@H](O)[C@@H](CO)O2)c(=O)n1` [decitabine] + COc1ccc(-c2ccc3c(N4CCOCC4)nc(N4C[C@@H](C)O[C@@H](C)C4)nc3n2)cc1CO [KU0063794] (first compound 0.1 µM, partner dose 0.02 µM): 77.6%; for `Nc1ccn([C@@H]2O[C@H](CO)[C@@H](O)C2(F)F)c(=O)n1` [gemcitabine] + CC1(C)NC(=O)N(c2ccc([N+](=O)[O-])c(C(F)(F)F)c2)C1=O [nilutamide] (first compound 0.0004 µM, partner dose 1 µM): 102%.
The same measure for `CC(=O)c1c(C)c2cnc(Nc3ccc(N4CCNCC4)cn3)nc2n(C2CCCC2)c1=O` [palbociclib] + CC(C)(C)c1cnc(CSc2cnc(NC(=O)C3CCNCC3)s2)o1 [SNS-032] (first compound 0.04 µM, partner dose 0.01 µM): 63.9%.
The same measure for `Nc1ccn([C@@H]2O[C@H](CO)[C@@H](O)C2(F)F)c(=O)n1` [gemcitabine] + Cc1ccc(NC(=O)c2cccc(N(C)C)c2)cc1NC(=O)c1ccc(O)cc1 [ZM336372] (first compound 0.0004 µM, partner dose 2 µM): 117%.
